We go through 53 molecules from ChEMBL document CHEMBL4888484, “Replenishing the malaria drug discovery pipeline: Screening and hit evaluation of the MMV Hit Generation Library 1 (HGL1) against asexual blood stage Plasmodium falciparum ,using a nano luciferase reporter read-out” (2022).

The whole screen tested about 150,000 compounds, of which about 540 (0.36%) showed an effect of 50% or more. The list shows a part of the results.

The experiment relates to Plasmodium falciparum. Description: Primary screen in NF54 nanoGlo assay, in single point, at 2uM, 72h; a lower Z score goes with more inhibition. It is filed as functional, Erythrocyte. The settings on record: timepoint 72 hour.
By % Inhibition is commonly meant the drop in the measured response relative to a control, in per cent. As to `CCN1CCN(C2CN(C(=O)CC(C3CCC3)C3CCC3)C2)CC1`, the “% Inhibition” value was -7% and the Z score came to 1.39.
The matching figures for `CC(C)c1nnc(NC(=O)COc2ccc3c(c2)OCO3)s1`: -9% and 1.66.
In the case of `CCOc1ccc(CN2CCC[C@@](F)(C(=O)N3CCOCC3)C2)cc1OC`, the “% Inhibition” value is -11% and the Z score was 0.93.
The matching figures for `CN1CCN(S(=O)(=O)c2ccccc2CNC(=O)NC23CCCC2C3)CC1` (stereo unspecified): -7% and 1.05.
The matching figures for `COc1c(CN[C@H]2CCCN(c3ccc(C#N)cc3F)C2)c(C)nn1C`: -10% and 0.99.
The matching figures for `COc1cc([C@H](C(=O)Nc2ccc(N(C)C)cc2)N(Cc2ccc(C)cc2)C(=O)Cc2ccccc2)cc(OC)c1OC`: 20% and -2.52.
Take `[O-][S+]1c2ccc(Cl)cc2CC(N2CCN(CCO)CC2)c2ccccc21` (stereo unspecified): the “% Inhibition” value is recorded as -27% and the Z score stood at 3.21.
Turning to `CN(Cc1nccn1C(F)F)[C@@]1(CO)CCOC1`, the “% Inhibition” value was -10% and the Z score turned out to be 1.47.
Regarding `C[C@@H]1CN(CC(C#N)CCC#N)CCN1C(=O)OC(C)(C)C` (stereo partly specified), the “% Inhibition” value is -4% and the Z score worked out at 0.52.
In the case of `CCN1CCC(NC(=O)c2cc(C3CC3)nn2C)(C(F)(F)F)CC1`, the “% Inhibition” value is given as -7% and the Z score amounted to 1.4.
For the molecule `Cn1nccc1C(=O)NCc1ccc2[nH]c(=O)[nH]c2c1`, the “% Inhibition” value is recorded as -13% and the Z score worked out at 1.51.
The matching figures for `Cc1noc(C(F)F)c1C(=O)NC[C@@]1(c2cnn(C)c2)CCCO1`: -24% and 2.62.
The matching figures for `CCCCNC(=O)CN(C)C(=O)c1cn(C)c(C)cc1=O`: -13% and 1.92.
The matching figures for `Cc1ccc(CN(C(=O)CCn2ccccc2=O)C2CC2)cc1C`: 6% and -1.21.
For the molecule `CCC(CC)(C(=O)N1CCC2(CCOCC2)CC1)c1ccccc1`, the “% Inhibition” value is reported as -15% and the Z score turned out to be 2.74.
The matching figures for `CN(C)c1nc(Cn2cnc3c2c(=O)n(C)c(=O)n3C)ns1`: 33% and -3.77.
The matching figures for `O=S(=O)(C1CC1)N1CCc2ccccc2C1`: -5% and 0.74.
The matching figures for `CCS(=O)(=O)C[C@](C)(Cl)C(=O)Nc1ccc(C(=O)OC)cc1`: -14% and 1.6.
As to `CC(C)Cc1nc(CN(C)c2noc(C3CC3)n2)no1`, the “% Inhibition” value was -2% and the Z score is recorded as 0.38.
The matching figures for `COc1cccc(-c2ccc(N3CCN(C(=O)CN(CCN4CCOCC4)C(=O)C4CCC4)CC3)nn2)c1`: 5% and -0.75.
Take `COc1ccc(-c2cc3n(n2)C[C@@](C)(C(=O)NC2CCCCCCC2)N(C2CCCC2)C3=O)cc1`: the “% Inhibition” value is 1% and the Z score was -0.12.
The matching figures for `COC(=O)N1CCCC(NC(C)c2ccc(OC)cc2)C1` (stereo unspecified): 2% and -0.36.
The matching figures for `CCN(CCOc1cccc(Cl)c1)C(=O)c1c(C)cc(C)[nH]c1=O`: -5% and 0.92.
The matching figures for `C[C@H](NC(=O)NCCC1CCCCC1)[C@H](O)c1ccc(O)cc1`: -2% and 0.27.
With `C[C@H]1CCc2c(sc(NC(=O)c3ccc(S(=O)(=O)N4CCCC4)cc3)c2C(N)=O)C1`, the “% Inhibition” value is reported as -7% and the Z score was 1.19.
The matching figures for `C=Cc1ccc(CN(c2cc(F)cc(F)c2)S(=O)(=O)c2cccn3cnnc23)cc1`: -4% and 0.66.
As for `COc1ccc(NC(=O)N2CCc3c(C(=O)NCCCN4CCCC4=O)cccc32)cc1`, the “% Inhibition” value was 10% and the Z score is -1.09.
The matching figures for `CCN1C[C@]2(CCCN(C(=O)c3ccc(-c4ccccc4)[nH]c3=O)C2)CCC1=O`: -14% and 1.95.
The matching figures for `FC(F)(F)c1ccc(N[C@H]2CCCN(c3ncccn3)C2)nc1`: 5% and -0.65.
With `Cc1nc(NC(=O)N2CC(C)OC3(CCOC3C)C2)ccc1-c1ccccc1` (stereo unspecified), the “% Inhibition” value is given as -4% and the Z score is reported as 0.56.
The matching figures for `O=C(N[C@H]1CC[C@@H]1O)c1noc2c1CCc1ccccc1-2`: -15% and 1.9.
As for `COc1ccc(S(=O)(=O)N2CCOCC2)cc1NC(=O)c1cc2c(s1)CCCCC2`, the “% Inhibition” value is -14% and the Z score is recorded as 1.93.
The matching figures for `Cc1nnsc1C(=O)N1CCO[C@H](c2ccccc2)C1`: -6% and 0.87.
The matching figures for `CC(=O)NCC(=O)NCC(=O)N(C)[C@H](c1ccccc1C)C(C)C`: 1% and -0.23.
The matching figures for `CCCNC(=O)C1CCN(c2nc3ncn(CC(N)=O)c(=O)c3s2)CC1`: -6% and 0.92.
With `Cc1noc(C)c1C(=O)N1CCCCC[C@H]1c1c(Cl)cnn1C`, the “% Inhibition” value is given as -12% and the Z score was found to be 1.08.
The matching figures for `O=C(NCCC(F)(F)F)NCCC1(O)CCC1`: -5% and 0.62.
The matching figures for `CN(Cc1ncon1)C(=O)[C@H](O)C1CCCCC1`: 2% and -0.41.
The matching figures for `CCC(CC)C(=O)N(C)C1CCN(c2ccccn2)CC1`: 5% and -0.48.
Take `Cc1ccc2sc(C(=O)N3CCC4(CC3)COC(=O)N4)cc2c1`: the “% Inhibition” value is given as -13% and the Z score was determined as 2.02.
The matching figures for `CCO[C@H]1C[C@@H](NC(=O)c2ccc(F)cc2O)C1`: 1% and -0.11.
The matching figures for `CC(C)[C@@H]1CCCCN1C(=O)Nc1cccn(CC(F)(F)F)c1=O`: -5% and 0.83.
The matching figures for `NC(=O)CCN1CCN(S(=O)(=O)CC2CCCC2)CC1`: -9% and 1.17.
With `Cc1nn(C)c(C)c1CNC(=O)Nc1ccnn1C[C@H]1CCOC1`, the “% Inhibition” value is reported as -7% and the Z score was 1.29.
The matching figures for `CC1COCC(C)N1C(=O)Cc1cccs1` (stereo unspecified): -4% and 0.51.
The matching figures for `CC(C)c1ccc(NC(=O)c2cccc(-c3noc(C4CCC4)n3)c2)cc1`: -2% and 0.42.
The matching figures for `CCCC1(C2CCN(Cc3ccc(OCC)cc3)CC2)NC(=O)N(CC2CCCO2)C1=O` (stereo unspecified): -7% and 0.85.
Regarding `CN(C)CCN(Cc1ccco1)S(=O)(=O)c1cccnc1`, the “% Inhibition” value was -1% and the Z score was 0.05.
The matching figures for `CCOC(=O)NC(=O)C(=CNc1cccc(C(F)(F)F)c1)C(=O)NC(=O)OCC`: -29% and 3.43.
The matching figures for `CN1CC[C@H](NC(=O)c2ccccc2-n2cnnc2)C1=O`: -11% and 1.34.
The matching figures for `Oc1ccc(-c2nc(-c3c[nH]c4ccccc34)cs2)cc1`: 37% and -1.72.
For `CCOC(=O)c1nc(-c2ccccn2)c(-c2cn(C)c3ccccc23)nc1NC(=O)c1ccccc1`, the “% Inhibition” value is 2% and the Z score is on record as -0.29.
The matching figures for `C[C@H]1C(=O)NCCN1CCc1nc(-c2ccccc2)no1`: -11% and 1.74.
